Our source for the GI50 and TGI values is PubChem BioAssay (NCI).

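Following 48 hours of exposure in 96-well plates, responses at five concentrations were used to interpolate endpoints linearly. GI50 = concentration required for 50% inhibition of growth. The concentration for full growth arrest is given as TGI.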

The assay concerns NCI-H322M lung. Kind of assay: NCI-60 cell line screen, 48 h.
Turning to `O=C(CNc1nc(-c2ccccc2)cs1)Nc1cccc(Cl)c1`, the GI50 is 12 µM and the TGI was determined as 57.5 µM.
Regarding `COc1cc(-c2nc3ccc(C)cc3[nH]2)ccc1OCc1nnc(-c2ccc(Br)cc2)o1`, the GI50 was greater than 100 µM and the TGI was greater than 100 µM.
For `O=C(N=Nc1c(O)[nH]c2ccc(Br)cc12)c1ccc2nc(-c3ccc(Cl)cc3)[nH]c2c1`, the GI50 was greater than 38 µM and the TGI is greater than 38 µM.
`COc1ccc(C(=O)/C=C/c2cccnc2)cc1S(N)(=O)=O`: the GI50 is 12.2 µM and the TGI stood at 23.9 µM.
On the same counts, the results for `COc1ccc(C(=O)/C=C/c2ccc(Cl)c(Cl)c2)cc1S(N)(=O)=O` are 2.11 µM and 7.59 µM.
On the same counts, the results for `O=C(c1ccc(Cl)cc1)C1[C@H](c2ccccc2Br)[C@@H](c2ccccc2)NC12C(=O)Nc1ccc(Cl)cc12` (some centres undefined) are 9.56 µM and 21.5 µM.
In the same order, the values of `CN(C)c1nc(NCCNS(=O)(=O)c2ccc(C(=O)/C=C/c3ccccc3)cc2)nc(Nc2ccc(F)cc2)n1` are 9.83 µM and 27.7 µM.
